The source of these data is paper PMC3376741.

Experiment [1] deals with T1, GST::Borealin central region (residues 110–207) (human) (UniProt Q53HL2).
T1 sequence: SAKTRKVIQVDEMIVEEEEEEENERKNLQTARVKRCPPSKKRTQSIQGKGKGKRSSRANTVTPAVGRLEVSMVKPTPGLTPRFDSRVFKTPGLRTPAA
The experiment is described as follows: pull-down; GST-tagged protein purified from bacteria on glutathione sepharose beads; partner translated in vitro and [35S] methionine-labelled; NET-N+ buffer (50 mM Tris-HCl pH 7.4, 150 mM NaCl, 5 mM EDTA, 0.5% NP-40), in ice 30 min; five washes; exposed to X-ray film; only the target purified.

The target of experiment [2] is T2, GST::CHMP4C_(1–121) (human) (UniProt Q96CF2).
T2 sequence: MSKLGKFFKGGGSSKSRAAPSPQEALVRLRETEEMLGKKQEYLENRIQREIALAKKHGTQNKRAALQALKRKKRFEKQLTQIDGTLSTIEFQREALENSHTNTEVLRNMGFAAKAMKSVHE
The description is as above.

In experiment [3] the target is T3, GST::CHMP4C_(122–233) (human) (UniProt Q96CF2).
T3 sequence: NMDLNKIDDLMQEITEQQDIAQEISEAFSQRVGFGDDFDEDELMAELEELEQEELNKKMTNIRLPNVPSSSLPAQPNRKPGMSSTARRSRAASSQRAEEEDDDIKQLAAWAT
The description is as above.

In experiment [4] the target is T4, GST::Borr_(1–117) (Drosophila) (UniProt Q9VLD6).
T4 sequence: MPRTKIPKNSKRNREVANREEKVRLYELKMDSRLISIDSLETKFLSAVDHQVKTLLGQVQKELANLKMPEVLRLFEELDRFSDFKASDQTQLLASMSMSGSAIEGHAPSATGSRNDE
The description is as above.

Experiment [5] has as its target T5, GST::Borr_(250–315) (Drosophila) (UniProt Q9VLD6).
T5 sequence: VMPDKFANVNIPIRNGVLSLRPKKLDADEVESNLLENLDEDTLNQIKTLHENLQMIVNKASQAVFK
The description is as above.

The target of experiment [6] is T6, GST::Borr_(118–249) (Drosophila) (UniProt Q9VLD6).
T6 sequence: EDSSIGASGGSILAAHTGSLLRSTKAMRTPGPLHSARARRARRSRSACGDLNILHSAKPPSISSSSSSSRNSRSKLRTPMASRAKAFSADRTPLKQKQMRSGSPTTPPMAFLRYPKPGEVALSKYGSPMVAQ
Described as above.

Experiment [7] addresses T7, GST::Borr full-length Borr_(1–315) (Drosophila) (UniProt Q9VLD6).
T7 sequence: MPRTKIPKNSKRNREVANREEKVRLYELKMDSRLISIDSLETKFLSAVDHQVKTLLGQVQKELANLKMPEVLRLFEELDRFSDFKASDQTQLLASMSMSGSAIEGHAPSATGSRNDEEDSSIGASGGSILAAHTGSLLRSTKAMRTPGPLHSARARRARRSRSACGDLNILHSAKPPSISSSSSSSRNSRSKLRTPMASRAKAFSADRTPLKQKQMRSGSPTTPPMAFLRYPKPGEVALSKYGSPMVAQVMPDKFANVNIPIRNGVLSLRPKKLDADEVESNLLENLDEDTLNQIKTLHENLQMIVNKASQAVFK
Described as above.

The target in experiment [8] is T8, GST::Borr_(1–249) (Drosophila) (UniProt Q9VLD6).
T8 sequence: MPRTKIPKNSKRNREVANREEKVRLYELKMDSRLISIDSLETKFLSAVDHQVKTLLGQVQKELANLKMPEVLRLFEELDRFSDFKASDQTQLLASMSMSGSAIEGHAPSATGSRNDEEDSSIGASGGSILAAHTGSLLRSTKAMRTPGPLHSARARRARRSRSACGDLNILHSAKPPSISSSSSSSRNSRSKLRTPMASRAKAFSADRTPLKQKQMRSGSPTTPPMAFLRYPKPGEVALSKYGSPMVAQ
Described as above.

For experiment [9], the target named is T9, GST::Borr_(118–315) (Drosophila) (UniProt Q9VLD6).
T9 sequence: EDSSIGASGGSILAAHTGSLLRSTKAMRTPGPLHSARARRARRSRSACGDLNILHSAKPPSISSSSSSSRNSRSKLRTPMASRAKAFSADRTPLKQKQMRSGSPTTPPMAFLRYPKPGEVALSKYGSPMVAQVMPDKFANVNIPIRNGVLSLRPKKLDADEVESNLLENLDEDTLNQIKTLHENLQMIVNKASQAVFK
Described as above.

The next experiment concerns the target T10, PtA::Borealin (human) (UniProt Q53HL2).
T10 sequence: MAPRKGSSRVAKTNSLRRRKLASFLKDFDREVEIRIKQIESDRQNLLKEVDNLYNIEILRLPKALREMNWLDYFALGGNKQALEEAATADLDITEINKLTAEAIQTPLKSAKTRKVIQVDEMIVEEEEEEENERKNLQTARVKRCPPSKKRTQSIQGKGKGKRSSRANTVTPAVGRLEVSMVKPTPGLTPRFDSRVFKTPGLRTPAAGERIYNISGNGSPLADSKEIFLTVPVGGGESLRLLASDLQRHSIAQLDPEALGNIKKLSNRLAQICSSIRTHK
The experiment is described as follows: pull-down; PtA pull-down from extracts of unsynchronized HeLa cells transfected for 48 h with PtA::Borealin or PtA alone and a GFP-tagged CHMP4 protein or GFP alone; rabbit IgG Dynabeads; Western blot for GFP and PtA. On the technique in general: A western blot detects proteins with antibodies after separation by electrophoresis.

For experiment [10], the target named is T11, GST::Borealin (GST::Bor) (human) (UniProt Q53HL2).
T11 sequence: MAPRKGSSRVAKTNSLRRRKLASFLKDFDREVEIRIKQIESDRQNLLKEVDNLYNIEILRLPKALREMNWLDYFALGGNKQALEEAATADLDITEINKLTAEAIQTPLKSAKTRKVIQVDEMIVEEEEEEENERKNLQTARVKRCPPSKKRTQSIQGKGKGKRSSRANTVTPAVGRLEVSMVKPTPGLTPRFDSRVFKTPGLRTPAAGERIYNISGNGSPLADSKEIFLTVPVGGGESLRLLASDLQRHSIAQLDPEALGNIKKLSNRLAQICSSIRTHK
The experiment is described as follows: pull-down; GST-tagged protein purified from bacteria on glutathione sepharose beads; partner translated in vitro and [35S] methionine-labelled; NET-N+ buffer (50 mM Tris-HCl pH 7.4, 150 mM NaCl, 5 mM EDTA, 0.5% NP-40), in ice 30 min; five washes; exposed to X-ray film; only the target purified.

Results are given in words; binding and its absence hold for the method and conditions named. Binding seen in cells or lysates may run through a third protein. Some entries that bind do so weakly or less than the wild type. Tags and fused reporters may be left off the sequences shown.

B1: CHMP4C translated and radio-labelled in vitro (protein, UniProt Q96CF2 1-233)
chain: MSKLGKFFKGGGSSKSRAAPSPQEALVRLRETEEMLGKKQEYLENRIQREIALAKKHGTQNKRAALQALKRKKRFEKQLTQIDGTLSTIEFQREALENSHTNTEVLRNMGFAAKAMKSVHENMDLNKIDDLMQEITEQQDIAQEISEAFSQRVGFGDDFDEDELMAELEELEQEELNKKMTNIRLPNVPSSSLPAQPNRKPGMSSTARRSRAASSQRAEEEDDDIKQLAAWAT
modifications: [35S] methionine-labelled
B1: the binding entry in experiment [1] is “binds”.

B2: Borealin translated and radio-labelled in vitro (protein, UniProt Q53HL2 1-280)
chain: MAPRKGSSRVAKTNSLRRRKLASFLKDFDREVEIRIKQIESDRQNLLKEVDNLYNIEILRLPKALREMNWLDYFALGGNKQALEEAATADLDITEINKLTAEAIQTPLKSAKTRKVIQVDEMIVEEEEEEENERKNLQTARVKRCPPSKKRTQSIQGKGKGKRSSRANTVTPAVGRLEVSMVKPTPGLTPRFDSRVFKTPGLRTPAAGERIYNISGNGSPLADSKEIFLTVPVGGGESLRLLASDLQRHSIAQLDPEALGNIKKLSNRLAQICSSIRTHK
modifications: [35S] methionine-labelled
With B2, the values for the binding entry in experiment [2] and in experiment [3] were “binds” and “no binding”, respectively.

B3: Shrb translated and radio-labelled in vitro (protein, UniProt Q8T0Q4 1-226)
chain: MSFFGKMFGGKKEVAPTTGEAIQKLRETENMLIKKQEFLEAKIEDELNIARKNASKNKRVALQALKKKKRLEKQLQQIDGTLSTIEMQREALESANTNTAVLTTMKNAADALKRAHQNMDVDKVHDMMDDIAEQQDVAREISDAISNPVAFGADLDDEDLERELDELEQENFDKEIIGIPEPTPTLPEAPTEDLPEKAKEKKKATTTTAVEDDDDPDMKQLLSWSN
modifications: [35S] methionine-labelled
Regarding B3, the binding result in experiment [4] is given as “no binding”; in experiment [5], “no binding”; in experiment [6], “no binding”; in experiment [7], “binds”; in experiment [8] it was “binds”; in experiment [9] it was “binds”.

B4: GFP::CHMP4B (protein, UniProt Q9H444 1-224)
chain: MSVFGKLFGAGGGKAGKGGPTPQEAIQRLRDTEEMLSKKQEFLEKKIEQELTAAKKHGTKNKRAALQALKRKKRYEKQLAQIDGTLSTIEFQREALENANTNTEVLKNMGYAAKAMKAAHDNMDIDKVDELMQDIADQQELAEEISTAISKPVGFGEEFDEDELMAELEELEQEELDKNLLEISGPETVPLPNVPSIALPSKPAKKKEEEDDDMKELENWAGSM
Turning to B4, the binding entry with PtA::Borealin (human) is recorded as “binds”.

B5: CHMP4B translated and radio-labelled in vitro (protein, UniProt Q9H444 1-224)
chain: MSVFGKLFGAGGGKAGKGGPTPQEAIQRLRDTEEMLSKKQEFLEKKIEQELTAAKKHGTKNKRAALQALKRKKRYEKQLAQIDGTLSTIEFQREALENANTNTEVLKNMGYAAKAMKAAHDNMDIDKVDELMQDIADQQELAEEISTAISKPVGFGEEFDEDELMAELEELEQEELDKNLLEISGPETVPLPNVPSIALPSKPAKKKEEEDDDMKELENWAGSM
modifications: [35S] methionine-labelled
Consider B5, for which, in experiment [10], the binding result was “binds”.

B6: GFP::CHMP4A (protein, UniProt Q9BY43 1-222)
chain: MSGLGRLFGKGKKEKGPTPEEAIQKLKETEKILIKKQEFLEQKIQQELQTAKKYGTKNKRAALQALRRKKRFEQQLAQTDGTLSTLEFQREAIENATTNAEVLRTMELAAQSMKKAYQDMDIDKVDELMTDITEQQEVAQQISDAISRPMGFGDDVDEDELLEELEELEQEELAQELLNVGDKEEEPSVKLPSVPSTHLPAGPAPKVDEDEEALKQLAEWVS
Turning to B6, in the experiment with PtA::Borealin (human), the binding result is “binds”.

B7: CHMP4A translated and radio-labelled in vitro (protein, UniProt Q9BY43 1-222)
chain: MSGLGRLFGKGKKEKGPTPEEAIQKLKETEKILIKKQEFLEQKIQQELQTAKKYGTKNKRAALQALRRKKRFEQQLAQTDGTLSTLEFQREAIENATTNAEVLRTMELAAQSMKKAYQDMDIDKVDELMTDITEQQEVAQQISDAISRPMGFGDDVDEDELLEELEELEQEELAQELLNVGDKEEEPSVKLPSVPSTHLPAGPAPKVDEDEEALKQLAEWVS
modifications: [35S] methionine-labelled
Turning to B7, the binding result in experiment [10] was “binds”.
